Laboratory results: PubChem BioAssay AID651813 (National Center for Advancing Translational Sciences (NCATS), 2012)
In all, about 2,100 compounds went through this assay and about 1,100 (52%) were called active. So high a share suggests a set chosen from earlier hits. The inconclusive results got no clear call from the source; some entries with a clear call stand among them for comparison. Calls follow the shape of the dose curve; as a rule, active = well fitted inhibition curve with a large enough effect; inconclusive = small, poorly fitted or top-dose-only effect; inactive = no such curve, though single readings can be large or run the other way. Potencies of inconclusive entries are left out as doubtful fits.

target: DNA dC->dU-editing enzyme APOBEC-3G (Homo sapiens) (UniProt Q9HC16); test: qHTS for inhibitors of Vif-A3G interactions: Cherry picks counterscreen; conditions: HeLa A3G-eYFP + Vif (tagged APOBEC3G with the HIV-1 protein that degrades it), eYFP fluorescence, 24 h;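 also: hits raise yellow fluorescence by blocking Vif-driven A3G-eYFP degradation; nearly all actives have a fitted effect of over 70% in size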;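 as to max response: max response given as percent of control signal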
UniProt Q9HC16, sequence (Q9HC16 whole entry, looked up): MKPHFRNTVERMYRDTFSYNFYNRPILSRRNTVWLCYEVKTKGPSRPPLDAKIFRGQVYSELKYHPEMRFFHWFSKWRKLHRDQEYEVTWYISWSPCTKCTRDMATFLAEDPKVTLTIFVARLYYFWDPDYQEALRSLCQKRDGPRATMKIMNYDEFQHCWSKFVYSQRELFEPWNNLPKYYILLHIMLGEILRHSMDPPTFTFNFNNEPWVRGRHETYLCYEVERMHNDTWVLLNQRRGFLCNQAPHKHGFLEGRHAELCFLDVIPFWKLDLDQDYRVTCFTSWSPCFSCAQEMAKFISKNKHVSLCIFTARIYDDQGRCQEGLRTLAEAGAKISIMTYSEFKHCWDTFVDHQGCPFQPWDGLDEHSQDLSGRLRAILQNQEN
Procedure, shortened: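 HeLa cells stably expressing A3G-eYFP and Vif were treated for 24 h at 37 deg C with compounds at several concentrations; yellow fluorescence (Ex 488 nm, Em 500-530 nm) read by Acumen Explorer, MG132 as positive control.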
Potency is read from the fitted curve at half-maximal effect; tags tell the direction and shape of the fitted curve.

Row | SMILES | Potency | max response
1 | O=C(NCc1ccc2c(c1)OCO2)c1cc([N+](=O)[O-])ccc1N1CCOCC1 | inconclusive [inhibitor, full curve] | 
2 | Cc1cccc(NC(=O)N2CC=C(c3c[nH]c4ccccc34)CC2)c1C | inconclusive [inhibitor, single point] | 
3 | c1ccc2[nH]c(NN=C3CCCCCC3)nc2c1 |  | inactive: 0.674%
4 | COc1ccc(OC)c(NC(=O)Cn2c(=O)n(-c3ccc(Cl)cc3)c(=O)c3c(C)c(C)sc32)c1 | inconclusive [inhibitor, partial curve] | 
5 | COc1ccc(-c2cc(C(=O)N/N=C/c3sccc3C)c3ccccc3n2)c(OC)c1 | inconclusive [inhibitor, single point] | 
6 | Cc1ccc(N=Cc2c(O)n(-c3nccs3)c(=O)c3ccccc23)c(C)c1 |  | inactive: -1.11%
7 | Nc1ccc2nc(-c3ccccc3)c(-c3ccccc3)nc2c1 | inconclusive [inhibitor, single point] | 
8 | Cc1cccc(NC(=O)/C(C#N)=C/c2cn(CC(=O)NCc3ccco3)c3ccccc23)c1C | inconclusive [inhibitor, full curve, poor fit] | 
9 | Cc1csc(NC(=O)CCC(=O)N(CC(=O)NC2CCCC2)Cc2ccccc2)n1 |  | inactive: -14.8%
10 | Brc1ccc2c(c1)C(c1cccnc1)=NNC(c1cccs1)=N2 | active: 8.86 µM | 
11 | c1ccc(N=NC2=NN(c3ccccc3)CS2)cc1 |  | inactive: 20.9%
12 | CCCCN(CCCC)S(=O)(=O)c1ccc(C(=O)Nc2sc3c(c2C(N)=O)CCN(CC)C3)cc1 | inconclusive [inhibitor, single point] | 
13 | CC(=O)Nc1cccc(-c2cc(NC=O)c3ncc(-c4ccc(F)c(Cl)c4)n3c2)c1 | inconclusive [inhibitor, single point] | 
14 | c1ccc(N=Nc2ccc3cccccc2-3)cc1 | inconclusive [inhibitor, single point] | 
15 | CCc1ccc2nc(SCC(=O)N3CC(=O)Nc4ccccc43)c(C#N)cc2c1 | active: 12.5 µM | 
16 | Fc1ccc2nc3[nH]c4ccccc4c3nc2c1 | active: 0.396 µM | 
17 | COc1ccc(NC(=O)C(NC(=O)/C=C\c2ccc3c(c2)OCO3)c2ccccc2)cc1 (stereo unspecified) |  | inactive: -17%
18 | Cc1oc(C)c2c(=O)ccc3c(c12)OC(N)=C(C#N)C3c1ccc(F)cc1 (stereo unspecified) |  | inactive: 44.8%
19 | O=C1OC(Nc2nc(-c3ccc(F)cc3)cs2)c2ccccc21 (stereo unspecified) | inconclusive [inhibitor, single point] | 
20 | COCCCNC(=S)N/N=C/c1cccc(OC)c1O |  | inactive: 7.9%
21 | Cc1cc(N2CCN(c3ccc([N+](=O)[O-])c4cccnc34)CC2)c2ccccc2n1 | inconclusive [inhibitor, single point] | 
22 | COc1cc(/C=C(/C#N)c2nc3ccccc3[nH]2)ccc1OC(=O)c1ccco1 |  | inactive: 51.6%
23 | COc1ccc2cc(C(=O)C3CCCN(Cc4ccccn4)C3)ccc2c1 (stereo unspecified) |  | inactive: -1.88%
24 | O=C(N=c1ccn(-c2nc3ccccc3nc2NS(=O)(=O)c2ccc(Cl)cc2)cc1)c1cccs1 | inconclusive [inhibitor, partial curve, poor fit] | 

Row | SMILES | Potency | max response
25 | C=CCNC(=S)N/N=C/c1ccc(C)cc1C |  | inactive: -13.8%
26 | Cc1c(C)n(Cc2ccccc2)c2ccc(C(=O)NCc3ccco3)cc12 | inconclusive [inhibitor, partial curve, poor fit] | 
27 | CCCC(=O)NC(c1ccc(OC)cc1)c1ccc2cccnc2c1O (stereo unspecified) |  | inactive: -9.5%
28 | Cc1ccc(NC(=O)C2CCN(S(=O)(=O)c3ccc(Cl)c(C(F)(F)F)c3)CC2)nc1 |  | inactive: 8.66%
29 | Cc1ccc(-c2csc(NC3OC(=O)c4ccccc43)n2)cc1 (stereo unspecified) | inconclusive [inhibitor, partial curve, poor fit] | 
30 | O=C(C(=O)N1CCN(c2ccccc2Cl)CC1)c1c[nH]c2ccccc12 |  | inactive: -13.1%
31 | CCc1c(C)nc(SCC(=O)c2cccs2)c(C#N)c1C | inconclusive [inhibitor, single point] | 
32 | Cn1c(=O)c2c(nc(NC3CCCC3)n2C)n(C)c1=O |  | inactive: -1.35%
33 | COc1ccc(-c2[nH]ncc2N=Nc2ccccc2)cc1 | active: 8.86 µM | 
34 | N#CCSc1ccccc1NC(=O)COC(=O)CCNC(=O)c1ccc([N+](=O)[O-])cc1 | inconclusive [inhibitor, single point] | 
35 | CCOC(=O)C1=C(Cc2ccc(Cl)cc2)C(=O)c2ccccc2C1=O | inconclusive [inhibitor, single point] | 
36 | CCc1ccc(NC(=O)/C(C#N)=C/c2cc3ccc(C)cc3nc2N2CCOCC2)cc1 | inconclusive [inhibitor, partial curve] | 
37 | CCOC(=O)COn1c(=O)c(-c2ccc(Br)cc2)[n+]([O-])c2ccccc21 |  | inactive: 4.24%
38 | CC(=O)Nc1ccc(S(=O)(=O)Nc2nc3ccccc3nc2Nc2ccc(N)cc2)cc1 | inconclusive [inhibitor, single point] | 
39 | CCC(=O)Nc1ccccc1-c1nc2ccccc2n(C(C)C(=O)Nc2ccc(OC)cc2)c1=O (stereo unspecified) | active: 8.2 µM | 
40 | COc1cc(C(=O)Nc2nnc(Cc3ccccc3)s2)cc(OC)c1OC | active: 12.5 µM | 
41 | COc1cc(OC)cc(C(=O)Nc2ccccc2C(=O)NC2CC2)c1 | inconclusive [inhibitor, single point] | 
42 | Cc1cccc(C)c1NC(=S)NC(C)CCc1ccccc1 (stereo unspecified) |  | inactive: -1.19%
43 | COc1ccc(-c2cc(NC=O)c3ncc(-c4cccc(C(F)(F)F)c4)n3c2)cc1OC | inconclusive [inhibitor, single point] | 
44 | Cc1ccccc1NC(=O)c1sc2nc3c(c(-c4ccco4)c2c1N)CCC3 | inconclusive [inhibitor, partial curve] | 
45 | Cc1ccc2c(/C=C/c3ccc(N(C)C)cc3)ccnc2c1 | inconclusive [inhibitor, single point] | 
46 | CN1CCC(OC(=O)c2cc3cc(Cl)cc(Cl)c3oc2=O)CC1 |  | inactive: 17.4%
47 | Cn1ncc(N=Cc2c(O)ccc3ccccc23)c1C(=O)Nc1cccc(Cl)c1 | inconclusive [inhibitor, single point] | 
48 | CCOC(=O)/C(=C/C1=CC(=C/N(C)C)/C(=O)O1)C(C)=O |  | inactive: 1.47%

Row | SMILES | Potency | max response
49 | N#CC1=C(N)Oc2ccc3ccc(O)cc3c2C1c1ccsc1 (stereo unspecified) | inconclusive [inhibitor, single point] | 
50 | O=C(Cn1ncc(Cl)c(Cl)c1=O)NCC1CCCCC1 | inconclusive [inhibitor, single point] | 
51 | Cc1ccc2nc(C)c(C(=O)NN=C3CCCCCC3)n2c1 |  | inactive: -10.3%
52 | CN1/C(=C/C=C(/C#N)C(N)=O)C(C)(C)c2ccccc21 | active: 9.94 µM | 
53 | Fc1ccc(-c2cnn3c(-c4cccs4)ccnc23)cc1 | active: 5.59 µM | 
54 | Cc1[nH][nH]c(=O)c1C(c1c(C)[nH][nH]c1=O)c1cn(Cc2ccccc2Cl)c2ccccc12 | inconclusive [inhibitor, single point] | 
55 | CC1=NN(c2ccccc2)C(=O)/C1=C/C=C/c1ccccc1 | inconclusive [inhibitor, single point] | 
56 | COc1cc(C(=O)N2CC(=O)Nc3ccccc32)cc(OC)c1OC | active: 17.7 µM | 
57 | CC(=O)Oc1ccc(N2C(=O)c3cccc4c([N+](=O)[O-])ccc(c34)C2=O)cc1 | inconclusive [inhibitor, single point] | 
58 | CCN(Cc1ccccc1)c1ccc(/C=C(\C#N)c2ccccn2)cc1 | inconclusive [inhibitor, partial curve] | 
59 | CO/N=C/c1ccc(OC)c(Oc2nc(OC)cc(OC)n2)c1 | inconclusive [inhibitor, single point] | 
60 | N#C/C(=C/c1ccc(-c2ccc([N+](=O)[O-])cc2)o1)C(=O)Nc1nc(-c2cccs2)cs1 | inconclusive [inhibitor, partial curve] | 
61 | O=C(NC(=S)Nc1c(Cl)cc(Cl)cc1Cl)c1ccccc1 |  | inactive: 6.93%
62 | O=C1C(=Cc2ccccc2[N+](=O)[O-])Cc2ccccc21 | inconclusive [inhibitor, single point] | 
63 | CCOc1ccccc1Nc1nnc(-c2cc3cc(Cl)ccc3oc2=O)s1 | inconclusive [inhibitor, full curve] | 
64 | COc1cc(-c2noc(C)c2C#Cc2ccc(N)cc2)cc(OC)c1OC | active: 0.444 µM | 
65 | CCOc1ccc(NC(=O)Cn2c(=O)n(Cc3ccc(C(=O)NCc4ccc(C)cc4)cc3)c(=O)c3ccccc32)cc1 | active: 13 µM | 
66 | Cc1cc(N2CCN(C)CC2)ccc1NC(=O)c1c2c(nc3ccccc13)CCN(Cc1ccccc1)C2 |  | inactive: 4.5%
67 | CCOC(=O)c1c(CC(C)C)csc1/N=C/C1C(=O)CCCC1=O |  | inactive: -2.9%
68 | O=C(C[n+]1cccc2cccc(O)c21)c1ccc2ccccc2c1 | inconclusive [inhibitor, partial curve] | 
69 | COc1ccc(NC(=O)N(Cc2cc3ccc(OC)cc3[nH]c2=O)CC2CCCO2)cc1 (stereo unspecified) | inconclusive [inhibitor, single point] | 
70 | CCN(CC)c1ccc(/C=C2\C(=N)N3N=C(CC(=O)N4CCOCC4)SC3=NC2=O)cc1 | active: 1.58 µM | 
71 | CCCN1CCc2c(sc(NC(=O)c3ccc(S(=O)(=O)N4CCN(C(=O)OCC)CC4)cc3)c2C(N)=O)C1 | active: 23.1 µM | 
